The values below come from patent US20240034784A1 (published 2024).

To fix the notation:
B1: sdab-37-hIgG1Fc (Fc fusion)
chain: QVKLEESGGGLVQAGGSLRLSCAVSGNFLNIVTMGWYRQAPGKQRELVATTTRGGSTSYSDSVKGRFTISRDNAKSTVYLQMNSLKPEDTAVYYCNADIIPGFLQQLTVHWGQGTRVTVSS[sequence of human IgG1 Fc with C220G (EU numbers) omitted]
B2: sdab-21-hIgG1Fc (Fc fusion)
chain: QVQLVESGGGLVQAGGSLRLSCAASGRILNLNDMGWYRQTPGKQRELVASIFSSGTTNYADSAKGRFTISRDNAKKMIYLQMNSLKPEDTAVYYCNADVVTGLLQRNVYWGQGTQVTVSS[sequence of human IgG1 Fc with C220G (EU numbers) omitted]
B3: sdab-24-hIgG1Fc (Fc fusion)
chain: QVKLEESGGGLVEAGGSLRLSCVASGSILNLMTMGWYRQAPGKQRELVATATPGGTTNYADSVKGRFTISRDNAKNTVYLQMNTLRPGDTAVYYCNADVVYGLARQGNYWGPGTQVTVSS[sequence of human IgG1 Fc with C220G (EU numbers) omitted]
B4: sdab-38-hIgG1Fc (Fc fusion)
chain: EVQLVESGGGLVQAGGSLRLSCVASGSIFHIPIMSWYRRAPGKQRELVAGISTGGSTNYADSVKGRFTISRDNAKNTVYLQMNSLKPDDTAVYYCNSLIKEEAWGTFGDYWGQGTQVTVSS[sequence of human IgG1 Fc with C220G (EU numbers) omitted]
B5: sdab-19-hIgG1Fc (Fc fusion)
chain: QVKLEESGGGLVQAGGSLRLSCAASVSIDGILAMGWYRQAPGKQRELVATIHSRGNTNYADSVKGRFTVSRENNKNTMYLQMNSLKPEDTAVYYCYVHFWIDYWGQGTQVTVSS[sequence of human IgG1 Fc with C220G (EU numbers) omitted]
B6: sdab-22-hIgG1Fc (Fc fusion)
chain: AVQLVESGGGLVQAGGSLRLSCVASGSWFRIQTMGWYRQTPGKQRELVADITTGGGSTYYVDSVKGRFTISRDNAKNTVYLQMINLKPEDTAAYYCQANVLEALFRPNLEVWGQGTLVTVSS[sequence of human IgG1 Fc with C220G (EU numbers) omitted]
B7: sdab-28-hIgG1Fc (Fc fusion)
chain: QVKLEESGGGLVQAGGSLRLSCAASGSSNADIRFMGWYRQPAGNQRNNQREPVAMVDTTGRINYADSVKGRFTISRDNAKNTVSLQMNSLKPEDTALYYCTAVLWPRGAISAMTVWGQGTQVTVSS[sequence of human IgG1 Fc with C220G (EU numbers) omitted]
B8: sdab-12-hIgG1Fc (Fc fusion)
chain: QVKLEESGGGLVQAGGSLTLSCAASRSIFSIDVMAWYRQAPGKQRELVARIWADGSTTYADSMKGRFAISRDTAKNTVYLQMNSLKPEDTAVYYCNAVGTIADGAFRPYNNWGQGTQVTVSS[sequence of human IgG1 Fc with C220G (EU numbers) omitted]
B9: sdab-1-hIgG1Fc (Fc fusion)
chain: QVKLEESGGGLAQAGGSLRLSCAASGRILNIAVMAWYRQTPGRQRELVAAITFGGSTDYADAVKGRFTISRDSAKNTVYLQMNDLKSEDTAVYYCNADVVTGLMRRDVYWGQGTQVTVSS[sequence of human IgG1 Fc with C220G (EU numbers) omitted]
B10: sdab-36-hIgG1Fc (Fc fusion)
chain: QVKLEESGGGLVQAGGSLRLSCAISGSIFSNTYMGWYRQAPGRQRELVARISGGGSVHYLDSVKGRFTISRDNAKNTLNLQMNSLTPEDTAIYYCYAHYWMDYWGQGTQVTVSS[sequence of human IgG1 Fc with C220G (EU numbers) omitted]
B11: sdab-5-hIgG1Fc (Fc fusion)
chain: DVQLVESGGGLVQAGGSLRLSCAASVGIFMGGWYRQAPGKQRELVATISSSGRTNYADSVKGRFTISGDNSMNTVYLQMNSLKPEDTAVYYCYAHYWRDYWGRGTQVTVSS[sequence of human IgG1 Fc with C220G (EU numbers) omitted]
B12: sdab-2-hIgG1Fc (Fc fusion)
chain: B11 chain with D1Q, Q3K, V5E, G27E, G31M, M72K, A94C
B13: sdab-26-hIgG1Fc (Fc fusion)
chain: DVQLVESGGGPVQAGGSLRLSCVASGSIYRINEMAWYRQAPGKQRELVAVAPNSVNPNYADSVKGRFTISRGNAKNTVYLQMNSLKPEDTAVYSCNAFIIPSVGVFTSRVYWGRGTQVTVSS[sequence of human IgG1 Fc with C220G (EU numbers) omitted]
B14: sdab-11-hIgG1Fc (Fc fusion)
chain: EVQLVESGGGLVQAGGSLRLSCVASGTILNIPLMAWFRQTPGKQRELVAGITTGGTTNYADSAKGRFTISRDNAKKTIYLQMDSLKPEDTAVYYCNADVVTGLMRRNVYWGQGTQVTVSS[sequence of human IgG1 Fc with C220G (EU numbers) omitted]
B15: sdab-27-hIgG1Fc (Fc fusion)
chain: AVQLVDSGGGLVQAGGSLRLSCAVSGSFLNIVTMGWYRQAPGKQRELVATTTRGGSTNYADSVKGRFTIARDNAKNTVYLHMDALKPEDTAVYYCNAEIIPGFLQQLTLYWGQGTQVTVSA[sequence of human IgG1 Fc with C220G (EU numbers) omitted]
B16: sdab-32-hIgG1Fc (Fc fusion)
chain: QVKLEESGGGLVQAGGSLRLSCAIPGSIVGSTYMGWFRQAPGKQRELVARIAGGGQINYADSVKGRFTISRDNAKNSLYLQMNSLTPEDTAVYYCYVHYWMDYWGQGTQVTVSS[sequence of human IgG1 Fc with C220G (EU numbers) omitted]
B17: sdab-4-hIgG1Fc (Fc fusion)
chain: QVQLVESGGGLVQPGGSLRLSCAASGSIFQINTMGWYRQAPGKQRELVAAITTGGSTKYSDSVKGRFTISRDNAKNTVYLQMNSLKPEDTAVYYCNADLKTNSNVFTWYEYWGQGTQVTVSS[sequence of human IgG1 Fc with C220G (EU numbers) omitted]
B18: sdab-30-hIgG1Fc (Fc fusion)
chain: QVQLVESGGGLVQAGGSLRLSCAASGSIYRINNMAWYRQAPGKQRELVAEITSSGNTLYADSVKGRFTISSDGARNTVYLQMNSLKPEDTAVYSCNAFIIPSVGVFTSRAYWGRGTQVTVSS[sequence of human IgG1 Fc with C220G (EU numbers) omitted]
B19: sdab-33-hIgG1Fc (Fc fusion)
chain: B18 chain with Q3K, V5E, S53N, A60T, S71M, R75K, T77A
B20: sdab-25-hIgG1Fc (Fc fusion)
chain: QVKLEESGGGLVQAGGSLRLSCVASGSIYRINNMAWYRQAPGKQRELVAESTSGGNFIYADSVKGRFAISRDNAKNTVYLQMNSLQPEDTAVYSCNAFIIPSVGVFASRTYWGRGTQVTVSS[sequence of human IgG1 Fc with C220G (EU numbers) omitted]
B21: sdab-14-hIgG1Fc (Fc fusion)
chain: B18 chain with Q3K, V5E, L58D, S71R, G73N, R75K, A110T
B22: sdab-3-hIgG1Fc (Fc fusion)
chain: B20 chain with V23A, S51I, G54S, G55D, F57T, I58Y, A68T, Q86K, A107S
B23: sdab-35-hIgG1Fc (Fc fusion)
chain: AVQLVESGGGLVQAGGSLRLSCVASGSIFQINTMGWYRQAPGKQREWVTGITTGGTTRYADSVKGRFTISRDNAKNTVYLQMNSLKPEDTAVYYCNSDLKTTSNVFQWYEYWGQGTQVTVSA[sequence of human IgG1 Fc with C220G (EU numbers) omitted]
B24: sdab-15-hIgG1Fc (Fc fusion)
chain: QVKLEESGGGLVQAGGSLRLSCAASGSILNINSMSWYRQAPGKQRELVATITVGGSTNYADSVKGRFTISRYNANNMMYLQMNSLKPDDTGVYSCNARIVSGFLRGPDDYWGQGTQVTVSS[sequence of human IgG1 Fc with C220G (EU numbers) omitted]

Where a chain is given by its changes, count along the chain named.

In one assay the target is T1, human Claudin 18.2 (human, UniProt P56856 1-261). Description: FACS. (A flow cytometer gives signals particle by particle.)
A word on the EC50: it is the concentration that produces a half-maximal response. Molecule B1 registered an EC50 of 2.53 nM.

B2 came in with an EC50 of 3.54 nM.

With B3, the EC50 was about 3.75 nM.

Molecule B4 came in with an EC50 of 3.79 nM.

On to B5, for which the EC50 came to 5.85 nM.

For B6, the half-maximal effective concentration (EC50) amounted to 3.83 nM.

For the molecule B7, the midpoint of the response, the EC50, lay at 3.25 nM.

On to B8, for which the EC50 worked out at 11.5 nM.

As for B9, the midpoint of the response, the EC50, lay at 4.04 nM.

On to B10, for which the EC50 came out at 3.53 nM.

Take B11: the EC50 came to 5.13 nM.

With B12, a half-maximal response (EC50) required 3.88 nM.

As to B13, it took 7.68 nM to reach a half-maximal effect (EC50).

Turning to B14, the EC50 was determined as 4.12 nM.

Molecule B15 returned an EC50 of 12.7 nM.

Molecule B16 gave an EC50 of 3.39 nM.

With B17, the EC50 was found to be 5.94 nM.

For the molecule B18, the response was half-maximal at 5.12 nM (EC50).

Molecule B19 registered an EC50 of 4.41 nM.

In the case of B20, the EC50 is 1.17 nM.

As to B21, it took 2.98 nM to reach a half-maximal effect (EC50).

On to B22, for which the EC50 is 2.69 nM.

In the case of B23, the response was half-maximal at 4.73 nM (EC50).

Regarding B24, the midpoint of the response, the EC50, lay at 4.94 nM.

The target of the next assay is T1, human Claudin 18.2. Description: FACS. The source holds these as a separate data set.
B4 registered an EC50 of 7.55 nM.

On to B10, for which it took 3.36 nM to reach a half-maximal effect (EC50).

Take B11: the response was half-maximal at 5.55 nM (EC50).

B12 returned an EC50 of 4.19 nM.

Take B16: it took 3.04 nM to reach a half-maximal effect (EC50).

B17 showed an EC50 of 6.79 nM.

For B19, it took 3.81 nM to reach a half-maximal effect (EC50).

B20 registered an EC50 of 1.34 nM.

Consider B23, for which the EC50 stood at 4.66 nM.
